# According to the supplement of paper PMC8728848:
# The other results are listed elsewhere or left out.
# B1: Gal 8 (Mus musculus), Q9JL15 (protein)
# chain: MGGSHHHHHHGMASMLSLNNLQNIIYNPIIPYVGTITEQLKPGSLIVIRGHVPKDSERFQVDFQLGNSLKPRADVAFHFNPRFKRSSCIVCNTLTQEKWGWEEITYDMPFRKEKSFEIVFMVLKNKFQVAVNGRHVLLYAHRISPEQIDTVGIYGKVNIHSIGFRFSSASALPHTLGDLQSMETSALGLTQINRENIQKPGKLQLSLPFEARLNASMGPGRTVVIKGEVNTNARSFNVDLVAGKTRDIALHLNPRLNVKAFVRNSFLQDAWGEEERNITCFPFSSGMYFEMIIYCDVREFKVAINGVHSLEYKHRFKDLSSIDTLSVDGDIRLLDVRSW
# Experiments:
# Assay in all cases: glycan array binding signal (z-score within array); higher = stronger binding
# Settings in all cases: glycan notation: IUPAC condensed, linker removed
# [1] = molecular target: Gal(b1-4)GlcNAc(b1-3)Gal(b1-3)GlcNAc
# In short: (§1)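 From the Consortium for Functional Glycomics database, 3228 arrays were curated, keeping only those whose protein sequence was available. Binding is given as a within-array Z-score averaged across arrays sharing a protein sequence and across linkers. Negative Z-scores can be read as non-binding.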
# [2] = molecular target: Gal(b1-4)GlcNAc(b1-3)Gal(b1-4)Glc
# In short: as §1
# [3] = molecular target: Gal(b1-4)GlcNAc(b1-3)Gal(b1-4)GlcNAc
# In short: as §1
# [4] = molecular target: Gal(b1-4)GlcNAc(b1-3)Gal(b1-4)GlcNAc(b1-2)Man(a1-3)[Gal(b1-4)GlcNAc(b1-3)Gal(b1-4)GlcNAc(b1-2)Man(a1-6)]Man(b1-4)GlcNAc(b1-4)GlcNAc
# In short: as §1
# [5] = molecular target: Gal(b1-4)GlcNAc(b1-3)Gal(b1-4)GlcNAc(b1-2)Man(a1-3)[Gal(b1-4)GlcNAc(b1-3)Gal(b1-4)GlcNAc(b1-2)Man(a1-6)]Man(b1-4)GlcNAc(b1-4)[Fuc(a1-6)]GlcNAc
# In short: as §1
# [6] = molecular target: Gal(b1-4)GlcNAc(b1-3)Gal(b1-4)GlcNAc(b1-2)[Gal(b1-4)GlcNAc(b1-3)Gal(b1-4)GlcNAc(b1-6)]Man(a1-6)[Gal(b1-4)GlcNAc(b1-3)Gal(b1-4)GlcNAc(b1-2)Man(a1-3)]Man(b1-4)GlcNAc(b1-4)GlcNAc
# In short: as §1
# [7] = molecular target: Gal(b1-4)GlcNAc(b1-3)Gal(b1-4)GlcNAc(b1-2)[Gal(b1-4)GlcNAc(b1-3)Gal(b1-4)GlcNAc(b1-6)]Man(a1-6)[Gal(b1-4)GlcNAc(b1-3)Gal(b1-4)GlcNAc(b1-2)Man(a1-3)]Man(b1-4)GlcNAc(b1-4)[Fuc(a1-6)]GlcNAc
# In short: as §1
# [8] = molecular target: Gal(b1-4)GlcNAc(b1-3)Gal(b1-4)GlcNAc(b1-3)Gal(b1-4)GlcNAc
# In short: as §1
# [9] = molecular target: Gal(b1-4)GlcNAc(b1-3)Gal(b1-4)GlcNAc(b1-3)Gal(b1-4)GlcNAc(b1-2)Man(a1-3)[Gal(b1-4)GlcNAc(b1-3)Gal(b1-4)GlcNAc(b1-3)Gal(b1-4)GlcNAc(b1-2)Man(a1-6)]Man(b1-4)GlcNAc(b1-4)GlcNAc
# In short: as §1
# [10] = molecular target: Gal(b1-4)GlcNAc(b1-3)Gal(b1-4)GlcNAc(b1-3)Gal(b1-4)GlcNAc(b1-2)Man(a1-3)[Gal(b1-4)GlcNAc(b1-3)Gal(b1-4)GlcNAc(b1-3)Gal(b1-4)GlcNAc(b1-2)Man(a1-6)]Man(b1-4)GlcNAc(b1-4)[Fuc(a1-6)]GlcNAc
# In short: as §1
# [11] = molecular target: Gal(b1-4)GlcNAc(b1-3)Gal(b1-4)GlcNAc(b1-3)Gal(b1-4)GlcNAc(b1-2)[Gal(b1-4)GlcNAc(b1-3)Gal(b1-4)GlcNAc(b1-3)Gal(b1-4)GlcNAc(b1-6)]Man(a1-6)[Gal(b1-4)GlcNAc(b1-3)Gal(b1-4)GlcNAc(b1-3)Gal(b1-4)GlcNAc(b1-2)Man(a1-3)]Man(b1-4)GlcNAc(b1-4)[Fuc(a1-6)]GlcNAc
# In short: as §1
# [12] = molecular target: Gal(b1-4)GlcNAc(b1-3)Gal(b1-4)GlcNAc(b1-3)Gal(b1-4)GlcNAc(b1-3)Gal(b1-4)GlcNAc(b1-2)Man(a1-3)[Gal(b1-4)GlcNAc(b1-3)Gal(b1-4)GlcNAc(b1-3)Gal(b1-4)GlcNAc(b1-3)Gal(b1-4)GlcNAc(b1-2)Man(a1-6)]Man(b1-4)GlcNAc(b1-4)GlcNAc
# In short: as §1
# [13] = molecular target: Gal(b1-4)GlcNAc(b1-3)Gal(b1-4)GlcNAc(b1-3)Gal(b1-4)GlcNAc(b1-3)Gal(b1-4)GlcNAc(b1-2)Man(a1-3)[Gal(b1-4)GlcNAc(b1-3)Gal(b1-4)GlcNAc(b1-3)Gal(b1-4)GlcNAc(b1-3)Gal(b1-4)GlcNAc(b1-2)Man(a1-6)]Man(b1-4)GlcNAc(b1-4)[Fuc(a1-6)]GlcNAc
# In short: as §1
# [14] = molecular target: Gal(b1-4)GlcNAc(b1-3)Gal(b1-4)GlcNAc(b1-3)Gal(b1-4)GlcNAc(b1-3)Gal(b1-4)GlcNAc(b1-2)[Gal(b1-4)GlcNAc(b1-3)Gal(b1-4)GlcNAc(b1-3)Gal(b1-4)GlcNAc(b1-3)Gal(b1-4)GlcNAc(b1-6)]Man(a1-6)[Gal(b1-4)GlcNAc(b1-3)Gal(b1-4)GlcNAc(b1-3)Gal(b1-4)GlcNAc(b1-3)Gal(b1-4)GlcNAc(b1-2)Man(a1-3)]Man(b1-4)GlcNAc(b1-4)[Fuc(a1-6)]GlcNAc
# In short: as §1
# [15] = molecular target: Gal(b1-4)GlcNAc(b1-3)Gal(b1-4)GlcNAc(b1-3)Gal(b1-4)GlcNAc(b1-3)Gal(b1-4)GlcNAc(b1-3)Gal(b1-4)GlcNAc(b1-2)Man(a1-3)[Gal(b1-4)GlcNAc(b1-3)Gal(b1-4)GlcNAc(b1-3)Gal(b1-4)GlcNAc(b1-3)Gal(b1-4)GlcNAc(b1-3)Gal(b1-4)GlcNAc(b1-2)Man(a1-6)]Man(b1-4)GlcNAc(b1-4)GlcNAc
# In short: as §1
# [16] = molecular target: Gal(b1-4)GlcNAc(b1-3)Gal(b1-4)GlcNAc(b1-3)Gal(b1-4)GlcNAc(b1-3)Gal(b1-4)GlcNAc(b1-3)Gal(b1-4)GlcNAc(b1-2)Man(a1-3)[Gal(b1-4)GlcNAc(b1-3)Gal(b1-4)GlcNAc(b1-3)Gal(b1-4)GlcNAc(b1-3)Gal(b1-4)GlcNAc(b1-3)Gal(b1-4)GlcNAc(b1-2)Man(a1-6)]Man(b1-4)GlcNAc(b1-4)[Fuc(a1-6)]GlcNAc
# In short: as §1
# [17] = molecular target: Gal(b1-4)GlcNAc(b1-3)Gal(b1-4)GlcNAc(b1-3)Gal(b1-4)GlcNAc(b1-3)Gal(b1-4)GlcNAc(b1-3)Gal(b1-4)GlcNAc(b1-2)[Gal(b1-4)GlcNAc(b1-3)Gal(b1-4)GlcNAc(b1-3)Gal(b1-4)GlcNAc(b1-3)Gal(b1-4)GlcNAc(b1-3)Gal(b1-4)GlcNAc(b1-6)]Man(a1-6)[Gal(b1-4)GlcNAc(b1-3)Gal(b1-4)GlcNAc(b1-3)Gal(b1-4)GlcNAc(b1-3)Gal(b1-4)GlcNAc(b1-3)Gal(b1-4)GlcNAc(b1-2)Man(a1-3)]Man(b1-4)GlcNAc(b1-4)[Fuc(a1-6)]GlcNAc
# In short: as §1
# [18] = molecular target: Gal(b1-4)GlcNAc(b1-3)Gal(b1-4)GlcNAc(b1-3)Gal(b1-4)GlcNAc(b1-3)Gal(b1-4)GlcNAc(b1-3)Gal(b1-4)GlcNAc(b1-3)Gal(b1-4)GlcNAc(b1-2)Man(a1-3)[Gal(b1-4)GlcNAc(b1-3)Gal(b1-4)GlcNAc(b1-3)Gal(b1-4)GlcNAc(b1-3)Gal(b1-4)GlcNAc(b1-3)Gal(b1-4)GlcNAc(b1-3)Gal(b1-4)GlcNAc(b1-2)Man(a1-6)]Man(b1-4)GlcNAc(b1-4)GlcNAc
# In short: as §1
# [19] = molecular target: Gal(b1-4)GlcNAc(b1-3)Gal(b1-4)GlcNAc(b1-3)GalNAc
# In short: as §1
binder,measurement,setting,value
B1,glycan array binding signal (z-score),[1],0.46
same,glycan array binding signal (z-score),[2],0.196
same,glycan array binding signal (z-score),[3],0.28
same,glycan array binding signal (z-score),[4],0.557
same,glycan array binding signal (z-score),[5],1.48
same,glycan array binding signal (z-score),[6],1.06
same,glycan array binding signal (z-score),[7],1.71
same,glycan array binding signal (z-score),[8],0.937
same,glycan array binding signal (z-score),[9],2.02
same,glycan array binding signal (z-score),[10],2.19
same,glycan array binding signal (z-score),[11],2.61
same,glycan array binding signal (z-score),[12],2.34
same,glycan array binding signal (z-score),[13],2.58
same,glycan array binding signal (z-score),[14],2.76
same,glycan array binding signal (z-score),[15],3.48
same,glycan array binding signal (z-score),[16],3.61
same,glycan array binding signal (z-score),[17],2.46
same,glycan array binding signal (z-score),[18],3.5
same,glycan array binding signal (z-score),[19],-0.149
